# In the supplement of paper PMC8728848:
# The list shows a part of the results.
# B1: AMA (Arum maculatun) (protein)
# chain: MAKLLLLLLLPAIVGLAVPRSAAAVGSNYMLSGETLNTDGRLTNGELTLIMQVDCNLVLYHGGWQSNTANNGRDCKLTLTDFGELVIKSGTGSTVWSSGSKQSMKGNYAAVVHPEGRLVIYGPSVFKINPSGAGLNGLPLRNIPLTNNMLFSGQVLYGDGTLSARNHKLVMQGDCNMVLYGGKYGWQSNTHGNGKYCFAMLTHKGELVIRDDDFKSVWSSKSSSKQGDYVFILQDDSLAIIYGPAVFSTGSKKMISMVTN
# Experiments:
# Assay in all cases: glycan array binding signal (z-score within array); higher = stronger binding
# Conditions in all cases: glycan notation: IUPAC condensed, linker removed
# Fuc(a1-2)Gal = molecular target: Fuc(a1-2)Gal
# In short: (§1)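 From the Consortium for Functional Glycomics database, 3228 arrays were curated, keeping only those whose protein sequence was available. Binding is given as a within-array Z-score averaged across arrays sharing a protein sequence and across linkers. Negative Z-scores can be read as non-binding.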
# Fuc(a1-2)Gal(b1-3)GalNAc = molecular target: Fuc(a1-2)Gal(b1-3)GalNAc
# In short: as §1
# [1] = molecular target: Fuc(a1-2)Gal(b1-3)GalNAc(a1-3)[Fuc(a1-2)]Gal(b1-4)Glc
# In short: as §1
# [2] = molecular target: Fuc(a1-2)Gal(b1-3)GalNAc(a1-3)[Fuc(a1-2)]Gal(b1-4)GlcNAc
# In short: as §1
# [3] = molecular target: Fuc(a1-2)Gal(b1-3)GalNAc(b1-3)Gal
# In short: as §1
# [4] = molecular target: Fuc(a1-2)Gal(b1-3)GalNAc(b1-3)Gal(a1-4)Gal(b1-4)Glc
# In short: as §1
# [5] = molecular target: Fuc(a1-2)Gal(b1-3)GalNAc(b1-4)[Neu5Ac(a2-3)]Gal(b1-4)Glc
# In short: as §1
# Fuc(a1-2)Gal(b1-3)GlcNAc = molecular target: Fuc(a1-2)Gal(b1-3)GlcNAc
# In short: as §1
# [6] = molecular target: Fuc(a1-2)Gal(b1-3)GlcNAc(b1-2)Man(a1-3)[Fuc(a1-2)Gal(b1-3)GlcNAc(b1-2)Man(a1-6)]Man(b1-4)GlcNAc(b1-4)GlcNAc
# In short: as §1
# [7] = molecular target: Fuc(a1-2)Gal(b1-3)GlcNAc(b1-2)Man(a1-3)[Fuc(a1-2)Gal(b1-3)GlcNAc(b1-2)Man(a1-6)]Man(b1-4)GlcNAc(b1-4)[Fuc(a1-6)]GlcNAc
# In short: as §1
# [8] = molecular target: Fuc(a1-2)Gal(b1-3)GlcNAc(b1-3)Gal(b1-4)Glc
# In short: as §1
# [9] = molecular target: Fuc(a1-2)Gal(b1-3)GlcNAc(b1-3)GalNAc
# In short: as §1
# [10] = molecular target: Fuc(a1-2)Gal(b1-3)GlcNAc(b1-3)[Fuc(a1-2)Gal(b1-3)GlcNAc(b1-6)]GalNAc
# In short: as §1
# [11] = molecular target: Fuc(a1-2)Gal(b1-3)GlcNAc(b1-3)[Gal(b1-4)GlcNAc(b1-6)]Gal(b1-4)Glc
# In short: as §1
# [12] = molecular target: Fuc(a1-2)Gal(b1-3)GlcNAc(b1-3)[Neu5Ac(a2-6)Gal(b1-4)GlcNAc(b1-6)]Gal(b1-4)Glc
# In short: as §1
# [13] = molecular target: Fuc(a1-2)Gal(b1-3)GlcNAc6S
# In short: as §1
# [14] = molecular target: Fuc(a1-2)Gal(b1-3)[Fuc(a1-4)]GlcNAc
# In short: as §1
# [15] = molecular target: Fuc(a1-2)Gal(b1-3)[Fuc(a1-4)]GlcNAc(b1-2)Man(a1-3)[Fuc(a1-2)Gal(b1-3)[Fuc(a1-4)]GlcNAc(b1-2)Man(a1-3)]Man(b1-4)GlcNAc(b1-4)GlcNAc
# In short: as §1
# [16] = molecular target: Fuc(a1-2)Gal(b1-3)[Fuc(a1-4)]GlcNAc(b1-2)Man(a1-3)[Fuc(a1-2)Gal(b1-3)[Fuc(a1-4)]GlcNAc(b1-2)Man(a1-6)]Man(b1-4)GlcNAc(b1-4)[Fuc(a1-6)]GlcNAc(b1-4)[Fuc(a1-6)]GlcNAc
# In short: as §1
# [17] = molecular target: Fuc(a1-2)Gal(b1-3)[Fuc(a1-4)]GlcNAc(b1-3)[Fuc(a1-3)[Gal(b1-4)]GlcNAc(b1-6)]Gal(b1-4)Glc
# In short: as §1
# [18] = molecular target: Fuc(a1-2)Gal(b1-3)[Fuc(a1-4)]GlcNAc(b1-3)[Gal(b1-4)GlcNAc(b1-6)]Gal(b1-4)Glc
# In short: as §1
# [19] = molecular target: Fuc(a1-2)Gal(b1-4)Fuc(a1-3)]GlcNAc(b1-2)Man(a1-3)[Fuc(a1-2)Gal(b1-4)[Fuc(a1-3)]GlcNAc(b1-2)Man(a1-6)]Man(b1-4)GlcNAc(b1-4)GlcNAc
# In short: as §1
# Fuc(a1-2)Gal(b1-4)Glc = molecular target: Fuc(a1-2)Gal(b1-4)Glc
# In short: as §1
# Fuc(a1-2)Gal(b1-4)Glc6S = molecular target: Fuc(a1-2)Gal(b1-4)Glc6S
# In short: as §1
# Fuc(a1-2)Gal(b1-4)GlcNAc = molecular target: Fuc(a1-2)Gal(b1-4)GlcNAc
# In short: as §1
# [20] = molecular target: Fuc(a1-2)Gal(b1-4)GlcNAc(b1-2)Man
# In short: as §1
# [21] = molecular target: Fuc(a1-2)Gal(b1-4)GlcNAc(b1-2)Man(a1-3)[Fuc(a1-2)Gal(b1-4)GlcNAc(b1-2)Man(a1-6)]Man(b1-4)GlcNAc(b1-4)GlcNAc
# In short: as §1
# [22] = molecular target: Fuc(a1-2)Gal(b1-4)GlcNAc(b1-2)Man(a1-3)[Fuc(a1-2)Gal(b1-4)GlcNAc(b1-2)Man(a1-6)]Man(b1-4)GlcNAc(b1-4)[Fuc(a1-6)]GlcNAc
# In short: as §1
# [23] = molecular target: Fuc(a1-2)Gal(b1-4)GlcNAc(b1-2)[Fuc(a1-2)Gal(b1-4)GlcNAc(b1-4)]Man(a1-3)[Fuc(a1-2)Gal(b1-4)GlcNAc(b1-2)Man(a1-6)]Man(b1-4)GlcNAc(b1-4)GlcNAc
# In short: as §1
# [24] = molecular target: Fuc(a1-2)Gal(b1-4)GlcNAc(b1-3)Gal(b1-4)GlcNAc
# In short: as §1
binder,measurement,setting,value
B1,glycan array binding signal (z-score),Fuc(a1-2)Gal,-0.213
same,glycan array binding signal (z-score),Fuc(a1-2)Gal(b1-3)GalNAc,-0.072
same,glycan array binding signal (z-score),[1],-0.214
same,glycan array binding signal (z-score),[2],-0.222
same,glycan array binding signal (z-score),[3],-0.21
same,glycan array binding signal (z-score),[4],-0.22
same,glycan array binding signal (z-score),[5],-0.214
same,glycan array binding signal (z-score),Fuc(a1-2)Gal(b1-3)GlcNAc,-0.176
same,glycan array binding signal (z-score),[6],0.005
same,glycan array binding signal (z-score),[7],0.153
same,glycan array binding signal (z-score),[8],-0.22
same,glycan array binding signal (z-score),[9],-0.211
same,glycan array binding signal (z-score),[10],-0.202
same,glycan array binding signal (z-score),[11],-0.21
same,glycan array binding signal (z-score),[12],-0.213
same,glycan array binding signal (z-score),[13],-0.207
same,glycan array binding signal (z-score),[14],-0.217
same,glycan array binding signal (z-score),[15],-0.21
same,glycan array binding signal (z-score),[16],0.014
same,glycan array binding signal (z-score),[17],-0.206
same,glycan array binding signal (z-score),[18],-0.217
same,glycan array binding signal (z-score),[19],-0.19
same,glycan array binding signal (z-score),Fuc(a1-2)Gal(b1-4)Glc,-0.216
same,glycan array binding signal (z-score),Fuc(a1-2)Gal(b1-4)Glc6S,-0.208
same,glycan array binding signal (z-score),Fuc(a1-2)Gal(b1-4)GlcNAc,-0.222
same,glycan array binding signal (z-score),[20],-0.205
same,glycan array binding signal (z-score),[21],0.852
same,glycan array binding signal (z-score),[22],0.1
same,glycan array binding signal (z-score),[23],1.02
same,glycan array binding signal (z-score),[24],-0.221
